Reference: PubChem BioAssay AID2546 (National Center for Advancing Translational Sciences (NCATS), 2010)
In all, about 310,000 compounds went through this assay and about 11,000 (3.5%) were called active. The shares of active, inactive and inconclusive entries below differ from those in the screen. Calls follow the shape of the dose curve; as a rule, active = well fitted inhibition curve with a large enough effect; inconclusive = small, poorly fitted or top-dose-only effect, or effect the other way; inactive = flat fitted curve, though single readings scatter. Potencies of inconclusive entries are left out as doubtful fits.

Assay: VP16 counterscreen qHTS for inhibitors of ROR gamma transcriptional activity;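 also: Gal4-VP16 expression switched on by copper sulfate through the metallothionein promoter; nearly all actives have a fitted effect of over 50% in size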
Conditions: Drosophila S2 Gal4-VP16 UAS-luciferase, luminescence, 20 h; activity, negative = inhibition: at 53.6 µM (top of the series)
% is scaled to controls: 0 for no effect and ±100 for the full control effect; potency is read from the fitted curve at half-maximal effect; tags tell the direction and shape of the fitted curve.

Row | Compound | Potency | activity, negative = inhibition
1 | Cc1occc1C(=O)Nc1ccc2c(c1)OCCO2 | inconclusive [inhibitor, partial curve] | –
2 | COc1ccc(-c2cc(C(F)(F)F)n3nc(C(=O)NCCCN4CCOCC4)cc3n2)cc1 | – | inactive: -4.5%
3 | CS(=O)(=O)c1nc(-c2ccccc2)c(-c2ccccc2)[nH]1 | inconclusive [inhibitor, partial curve, poor fit] | –
4 | COC(=O)COc1cccc(NC(=O)c2ccc(C)cc2)c1 | inconclusive [inhibitor, partial curve, poor fit] | –
5 | CNC(=S)N/N=C1\CC(c2ccccc2)Oc2ccccc21 (stereo not drawn) | inconclusive [inhibitor, single point] | –
6 | CNc1nc(Nc2ccc([N+](=O)[O-])cc2)nc(OCC(F)(F)F)n1 | inconclusive [inhibitor, single point] | –
7 | O=C(CC1SC(=O)N(c2ccccc2)C1=O)Nc1ccccc1 (stereo not drawn) | inconclusive [inhibitor, single point] | –
8 | COc1cc(/C=C2\SC(=S)N(CC(=O)Nc3ccccn3)C2=O)cc(OC)c1OC | – | inactive: -5.74%
9 | Nc1cccc(C(=O)NCCNC(=O)c2cccc(N)c2)c1 | – | inactive: 0.384%
10 | COc1ccc(OC)c(NC(=O)CSc2nncc3ccc(OC)c(OC)c23)c1 | inconclusive [inhibitor, partial curve] | –
11 | Cc1ccc(C(=O)O/N=C(\N)c2ccccn2)cc1C | active: 11.2 µM | –
12 | CCCn1c(Cc2ccccc2)n[nH]c1=S | inconclusive [inhibitor, single point] | –
13 | COc1ccc(-c2cc(C(=O)N3CCOCC3)no2)cc1 | inconclusive [inhibitor, full curve, poor fit] | –
14 | CCc1cc(C(c2ccncc2)N2CCN(C)CC2)c(NC(=O)c2ccccc2)s1 (stereo not drawn) | – | inactive: -13%
15 | Cc1csc2c(N3CCN(C(=S)Nc4ccc(C(F)(F)F)cc4)CC3)ncnc12 | inconclusive [inhibitor, single point] | –
16 | COc1cc(C=O)ccc1OCCCOc1ccccc1C(=O)O | active: 6.31 µM | –
17 | Cc1ccccc1C(=O)N1CCN(c2ccc(NC(=O)Cc3ccccc3)cc2)CC1 | – | inactive: -1.8%
18 | CC(CC(=O)N1CCc2ccccc21)n1cccn1 (stereo not drawn) | – | inactive: -28.8%
19 | CN1CCN(c2ncc3nc(-c4cn(C)c5ccccc45)c(=O)n(Cc4cccs4)c3n2)CC1 | inconclusive [inhibitor, single point] | –
20 | CCOc1cc(C(=O)NC(=S)Nc2cccnc2)cc(OCC)c1OCC | inconclusive [inhibitor, single point] | –
21 | CN(CC(=O)Nc1ccccc1Cl)C(=O)COC(=O)c1nc(Cl)c(Cl)c(Cl)c1Cl | inconclusive [inhibitor, single point] | –
22 | Cc1cccc(NC(=O)CSc2ccc(-c3ccco3)nn2)c1C | – | inactive: -8.43%
23 | Cc1c(C#N)c(O)[nH]c(=O)c1N=Nc1ccc(Br)cc1C(=O)O | inconclusive [inhibitor, single point] | –
24 | COc1ccc(C(=O)Nc2ccc(NC(=O)c3ccccc3)cc2)cc1S(=O)(=O)N1CCOCC1 | inconclusive [inhibitor, single point] | –
25 | CCNC(=O)/C(C#N)=C/c1c(N2CC(C)OC(C)C2)nc2ccccn2c1=O (stereo not drawn) | – | inactive: -2.06%

Row | Compound | Potency | activity, negative = inhibition
26 | COC(=O)c1sc2nc(C)c([N+](=O)[O-])c(C)c2c1N | inconclusive [activator, single point] | –
27 | O=S(=O)(NC1CCCc2ccccc21)c1cnc[nH]1 (stereo not drawn) | inconclusive [inhibitor, single point] | –
28 | Cc1cccc(NC(=O)Nc2ccccc2[N+](=O)[O-])n1 | – | inactive: 4.65%
29 | CC1CC2(CC(C)(C(=O)CSc3n[nH]c(-c4ccccc4Cl)n3)OC2=O)C(=O)O1 (stereo not drawn) | inconclusive [inhibitor, single point] | –
30 | O=C(/C=C/c1ccc(Cl)c([N+](=O)[O-])c1)Nc1ccc(NC(=O)c2ccco2)cc1 | inconclusive [inhibitor, single point] | –
31 | Clc1cc(Cl)cc(C2=N[C@@H](Cc3ccccc3)CO2)c1 | – | inactive: 3.09%
32 | CC(=O)Nc1ccc(S(=O)(=O)Nc2cccc(N(C)S(C)(=O)=O)c2)cc1 | inconclusive [inhibitor, partial curve] | –
33 | COc1ccc(NC(C)C(=O)N/N=C/c2ccc([N+](=O)[O-])s2)cc1 (stereo not drawn) | inconclusive [inhibitor, partial curve, poor fit] | –
34 | C=CCCCCCCCCCCCc1ccco1 | inconclusive [inhibitor, partial curve] | –
35 | COc1ccc(OC)c(S(=O)(=O)ON2C(=O)c3ccccc3C2=O)c1 | active: 7.94 µM | –
36 | CN(C)c1nc(Cl)cc(N2CCOCC2)n1 | inconclusive [activator, single point] | –
37 | CSc1ccc(/C=N/N(C)S(=O)(=O)c2ccc(C)cc2)cc1 | inconclusive [inhibitor, partial curve] | –
38 | Cc1cc2n(n1)C(c1ccsc1)Nc1ccccc1-2 (stereo not drawn) | inconclusive [inhibitor, single point] | –
39 | O=C(c1ccccc1)N1N=C(c2ccccc2)CC1(O)C(F)(F)F (stereo not drawn) | – | inactive: -17.8%
40 | CCn1cc([N+](=O)[O-])c(C(=O)N2N=C(c3ccc4ccccc4c3)CC2c2cc(Br)ccc2O)n1 (stereo not drawn) | inconclusive [inhibitor, single point] | –
41 | C/C(CC(=O)NC12CC3CC(CC(C3)C1)C2)=N\NC(=O)c1ccc(C)cc1 | inconclusive [inhibitor, single point] | –
42 | CC(C)(C)c1ccc(-n2ncc3c2CCCC3NC(=O)CN2CCCCC2=O)cc1 (stereo not drawn) | inconclusive [inhibitor, single point] | –
43 | Cc1ccc(-c2csc(N(CCCN(C)C)C(=O)c3ccco3)n2)cc1 | active: 3.55 µM | –
44 | Cn1c2ccccc2c2cc(C(=O)O)ccc21 | inconclusive [inhibitor, partial curve] | –
45 | CCOC(=O)c1c(C)oc2c1c(C(c1ccccc1)N1CCOCC1)c(O)c1ccccc12 (stereo not drawn) | active: 10 µM | –
46 | COc1nc(C)ccc1-c1noc(-c2cccs2)n1 | inconclusive [inhibitor, partial curve] | –
47 | Cc1cccc(-c2nnc(SCC#N)n2Cc2ccccc2)c1 | – | inactive: -4%
48 | COc1cccc(CN2CCN(C(=O)Nc3ccc([N+](=O)[O-])cc3)CC2)c1 | inconclusive [inhibitor, single point] | –
49 | CCOC(=O)/C(C#N)=C1/C=C(C)NC(c2ccccc2O)=N1 | inconclusive [inhibitor, single point] | –
50 | CCC/C=C(\CCC)C(NS(=O)(=O)c1ccc(C(F)(F)F)cc1)c1ccccc1 (stereo not drawn) | inconclusive [inhibitor, single point] | –

Row | Compound | Potency | activity, negative = inhibition
51 | O=CC1=C(c2ccccc2)Oc2ccccc2O1 | inconclusive [inhibitor, single point] | –
52 | Fc1ccc(N=c2ssnc2Cl)c(F)c1 | inconclusive [inhibitor, single point] | –
53 | CC(C)(C)c1ccc(C(=O)NC(=S)N2CCCC2)cc1 | active: 0.891 µM | –
54 | Cc1ccc(/C=N/NC(=O)c2ccoc2C)s1 | inconclusive [inhibitor, single point] | –
55 | Cc1cccc(C(=O)Nc2sc(C)c(-c3ccccc3)c2C#N)c1 | inconclusive [inhibitor, partial curve] | –
56 | O=c1cnc2cncnc2n1Cc1ccccc1 | – | inactive: 0.189%
57 | CCOC(=O)c1ccc(NC(=S)NC(=O)COc2ccccc2)cc1 | inconclusive [inhibitor, single point] | –
58 | N#Cc1c(N)c(C#N)c(-c2ccc(O)cc2)c2c1CCCC2 | inconclusive [inhibitor, single point] | –
59 | COCc1nc(-c2ccc(-c3ccccc3)nc2OC)no1 | – | inactive: 3.23%
60 | O=[N+]([O-])c1cc(-c2cnc3ccccc3n2)ccc1Oc1ccc(Cl)cc1 | – | inactive: -19.8%
61 | COc1ccc(NC(=S)NCc2ccc(Cl)cc2)c(OC)c1 | inconclusive [inhibitor, single point] | –
62 | NC(=S)N=Nc1c(O)[nH]c2ccc(F)cc12 | inconclusive [inhibitor, single point] | –
63 | O=C(NCc1ccc2c(c1)OCO2)c1cc(-c2ccccc2Cl)on1 | inconclusive [inhibitor, single point] | –
64 | CCOc1ccc(NC(=O)C(=O)NCCN2CCN(C(=O)c3ccc(C)cc3)CC2)cc1 | – | inactive: -4.42%
65 | COc1ccc(C2(c3ccc(OC)cc3)NC(=O)N(CC(=O)Nc3ccc(C(N)=O)cc3)C2=O)cc1 | inconclusive [inhibitor, single point] | –
66 | CN(Cc1cccc(F)c1)C(=O)CNS(=O)(=O)c1ccc2ccccc2c1 | – | inactive: -3.64%
67 | COCC(=O)Nc1cc(C)cn(Cc2ccccc2Cl)c1=O | – | inactive: -2.81%
68 | COc1cc(CNCCc2ccccc2)cc(Cl)c1OCc1ccccc1 | inconclusive [inhibitor, single point] | –
69 | COC(=O)c1ccc2c(=O)n(CCCCCC(=O)NC(C)C)c(=O)[nH]c2c1 | – | inactive: 3.53%
70 | Cc1ccccc1OCCCSc1nc2ccccc2[nH]1 | inconclusive [inhibitor, single point] | –
71 | CN(C)CCNc1ncnc2c1sc1nc(-c3ccccc3)c3c(c12)CCCC3 | active: 2.82 µM | –
72 | CC(=O)C(Sc1nc(NC(C)(C)C)nc(N(C)C)n1)C(C)=O | active: 14.1 µM | –
73 | CCN(CC)S(=O)(=O)c1cccc(C(=O)N/N=C/c2c(C)nn(-c3ccccc3)c2Cl)c1 | inconclusive [activator, single point] | –
